Reference: PubChem BioAssay AID1508624 (National Center for Advancing Translational Sciences (NCATS), 2021)
Hit rate of the full screen: of about 48,000 compounds, about 120 (0.25%) were called active. Not shown: some 4% with an inconclusive outcome. Calls come from the whole dose curve; as a rule, active = well fitted activation curve with a large enough effect; inconclusive = small, poorly fitted or top-dose-only effect, or another doubt; inactive = no such curve, though single readings can be large or run the other way. This is one part of the list.

Test: Primary qHTS for Identification of Small Molecule Activators of Huntingtin-Antisense Promoter Activity; note: nearly all actives have a fitted effect of over 55% in size
Details: HEK293 HTT-AS promoter firefly luciferase reporter, 24 h; series mostly up to 57.5 µM; activity change, positive = activation: at the top concentration
In short: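 HEK293 Fluc reporter, 2,500 cells/well, 24 h pre-culture; cpds up to 57.5 uM final, 24 h 37 degrees C; Dual-Glo, 10 min RT; normalized vehicle = 0%, zero RLU = -100%.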

Activity change, positive = activation, inactive:
Cc1cccc(NC(=O)c2c(Br)sc3c2CCCC3)c1 -24.4%, COc1ccc(Nc2nnc(-c3ccc(C)c(S(=O)(=O)N4CCOCC4)c3)c3ccccc23)cc1 10.4%, COc1ccccc1N1CCN(C(=O)CSc2nc(-c3ccc(C(C)C)cc3)no2)CC1 -19.2%, OC(CCN1CCCCC1)(c1ccccc1)c1ccccc1 -6.68%, CCOc1cc(C2c3c(oc4ccc(F)cc4c3=O)C(=O)N2Cc2ccc(C)cc2)ccc1O (stereo not given) -11.6%, COc1ccc(C2CC(=O)c3c([nH]c(C(=O)OCc4ccccc4)c3C)C2)cc1OC (stereo not given) -22.1%, CCCCNC(=O)CSc1nc2n[nH]c(C)c2c(=N)n1-c1ccccc1CC -33.8%, O=C(COc1ccccc1F)Nc1nnc(S(=O)(=O)N2CCCCCC2)s1 -16.3%, O=C(NCCCN1CCN(c2ccccc2)CC1)c1cc2c(s1)-c1ccccc1OC2 -37.3%, Cc1ccccc1Cc1c(C)nc2nc(SCC(=O)NC(C)c3ccccc3)nn2c1C (stereo not given) -11.1%, CCC1CN(C(=O)Nc2cccc3c2CCCC3)c2cc(C)ccc2O1 (stereo not given) -30.8%, CCOC(=O)c1c(C)oc2nc(C)nc(NCCCN3CCN(c4cccc(C)c4)C(C)C3)c12 (stereo not given) -24.5%, COc1cc(Nc2ncc3c(n2)-c2ccc(Cl)cc2C(c2c(F)cccc2OC)=NC3)ccc1C(=O)O -43.8%, CCCCNC(=O)C1CCN(Cc2nc(-c3ccc(OC)c(OC)c3)oc2C)CC1 -0.222%, Cc1ccc(CNC(=O)CN(c2cc(C)cc(C)c2)S(=O)(=O)c2c(C)[nH]c(=O)[nH]c2=O)cc1 -6.77%, Cc1ccc(N2CCN(C(=O)c3nn(C)c4c3CSc3ccccc3-4)CC2C)cc1 (stereo not given) -4.31%, CCc1ccc(C2c3c(n[nH]c3C)C(=O)N2c2ccc(C)cc2)cc1 (stereo not given) 12.4%, CCc1cccc(NC(=O)CCS(=O)(=O)c2ccc(C)cc2)c1 -16.8%, O=C(NC1CCCC1)c1ccc2c(c1)N(Cc1ccc(F)cc1)C(=O)c1ccccc1S2 -28.3%, COc1ccc(NC(=O)C(Cc2ccccc2)n2cccc2)c(OC)c1 (stereo not given) -24.1%, CC(C)CCNC(=O)CSc1nc2ccsc2c(=O)n1Cc1ccccc1Cl -25.4%, COc1ccc(-c2noc(-c3ccccc3NC(=O)c3cc(OC)c(OC)c(OC)c3)n2)cc1 -4.38%, O=C(c1cccc(Cl)c1)N1CCC(c2nc3c(nnn3Cc3ccc(F)cc3F)c(=O)[nH]2)CC1 -37.2%, Cc1ccc(-c2nnc(Nc3ccc(Cl)cc3)c3ccccc23)cc1S(=O)(=O)NCC1CCCO1 (stereo not given) -13.1%, COc1cc(C(=O)Nc2ccccc2OCc2cc(=O)n3cc(C)sc3n2)cc(OC)c1OC -4.46%, COc1ccc(C(=O)c2cn(Cc3ccccc3F)c3ccc(F)cc3c2=O)cc1 -25.1%, COc1ccc(-c2[nH]c(-c3ccc(OC)c(OC)c3)nc2SCC(=O)Nc2ccccc2)cc1 -16.2%, Cc1cccc(NC(=O)c2oc3ccc(S(=O)(=O)N4CCCCC4)cc3c2C)c1C -10.6%, Cn1ccc2cc(S(=O)(=O)N3CCCN(C(=O)Nc4ccc(Br)cc4)CC3)ccc21 -27.4%, CCOc1ccccc1C(=O)N(Cc1ccc(N(C)C)cc1)Cc1ccco1 -33.3%, COc1ccc(CCNC(=O)CSc2nnc(-c3ccc(C)cc3)c(-c3ccc(C)cc3)n2)cc1OC -29.5%, Cc1ccc(-c2noc(-c3ccc(NCC4CCCO4)c([N+](=O)[O-])c3)n2)cc1 (stereo not given) 4.77%, CCCCOc1cccc(C(=O)N(Cc2ccc(Cl)cc2)C2CCS(=O)(=O)C2)c1 (stereo not given) -24.2%, COc1cccc(C2=NN(S(C)(=O)=O)C(c3cn(-c4ccccc4)nc3-c3cccs3)C2)c1 (stereo not given) 3.74%, COc1ccc(CNC(=O)CN(C)c2nn3c(=O)cc(C)nc3s2)cc1 -8.12%, CC(=O)c1ccc(N2CCN(C(=O)CS(=O)(=O)c3cccc4nsnc34)CC2)cc1 -22.7%, COc1ccccc1NC(=O)N1CC=C(c2c[nH]c3ccccc23)CC1 1.52%, CCOc1ccc(C(=O)NCCS(=O)(=O)N2CCN(c3cccc(Cl)c3)CC2)cc1 -17.5%, CC(=O)Oc1ccc(C2(c3ccc(OC(C)=O)cc3)Oc3ccccc3NC2=O)cc1 -49.2%, Cc1cc(=O)[nH]c2nnc(SCCC(C)C)n12 2%, CC1CN(C(=O)CCC(=O)NCc2cccs2)c2ccccc2O1 (stereo not given) 12.4%, COc1ccc(NC(=O)c2c(NCc3ccc(C)o3)sc3c2CCC(C)C3)cc1 (stereo not given) 15.3%, Cc1ccc(S(=O)(=O)c2cn(C)c3cc(N4CCN(c5ccccc5)CC4)c(F)cc3c2=O)cc1 -6.37%, CCOC(=O)N1CCc2c(sc3c2c(=O)n(Cc2ccccc2)c(=O)n3Cc2cccc(Cl)c2)C1 -12.9%, CCOC(=O)c1ccc(NC(=O)c2nc(S(=O)(=O)Cc3ccccc3)ncc2Cl)cc1 -96.1%, COc1cc(NC(=O)C2=C(C)Nc3nnnn3C2c2ccc(SC)cc2)c(OC)cc1Cl (stereo not given) -21.9%, CCOc1ccccc1NC(=O)C1CCN(S(=O)(=O)c2ccc(Br)cc2)CC1 -1.17%, Cc1ccc(-n2nc(C(=O)N3CCCCC3C)c(=O)n(C)c2=O)cc1 (stereo not given) 0.0128%, Cc1nn(CCCC(=O)NCc2ccccc2)c(=O)c2c1sc1ccccc12 3.99%, O=C(NCCCN1CCN(c2ccc(F)cc2)CC1)c1cc2c(s1)-c1ccccc1OC2 -27.2%, CCOC(=O)c1ccc2c(c1)N(CC(=O)Nc1cc(F)ccc1F)C(=O)c1ccccc1S2 -10.7%, C[N+]1(C)[C@@H]2CC(OC(=O)[C@H](CO)c3ccccc3)C[C@H]1[C@@H]1O[C@@H]12 (stereo not given in full) -7.2%, OCC(CO)N[C@H]1C[C@](O)(CO)[C@@H](O)[C@H](O)[C@H]1O -5.99%, CC1=C(C(N)=O)C(c2cccc(C)c2)n2nc(-c3ccc(Cl)cc3)nc2N1 (stereo not given) -7.62%, CSc1ccccc1NC(=O)C1=CC(c2ccc3c(c2)OCO3)=NS(=O)(=O)N1C -16.1%, CCOC(CN1CCN(CC(C)C(=O)c2ccccc2)CC1)c1ccccc1 (stereo not given) -9.94% [at 25.1 µM, percent change from vehicle, -100% = no light], Cc1cccc(-c2nc3cc(NC(=O)Cc4ccc(Cl)cc4)ccc3o2)c1 -16.3%, CCN(CC)CCOC(=O)c1ccc(NC(=O)c2nn(-c3ccc(C)cc3)c(=O)c3c2c2ccccc2n3C)cc1 -23.2%, CCOC(=O)CCN(Cc1ccccc1)S(=O)(=O)c1csc(C(N)=O)c1 6.64%, CCN(C(=O)Cn1nc2c3cc(F)ccc3n(Cc3cccc(C)c3)cc-2c1=O)c1cccc(C)c1 -12.4%
